Experimental findings from article PMC6919601, “Identification of Plasmodium dipeptidyl aminopeptidase allosteric inhibitors by high throughput screening” (PLoS ONE, 2019) are described below.

Screen size: about 110,000 compounds; about 230 (0.21%) showed an effect of 50% or more. Some of the results follow.
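Further: 30 min substrate incubation versus DMSO and 10 µM JCP410 controls.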

Chain of DPAP1 (Q8IIJ9 whole entry, looked up): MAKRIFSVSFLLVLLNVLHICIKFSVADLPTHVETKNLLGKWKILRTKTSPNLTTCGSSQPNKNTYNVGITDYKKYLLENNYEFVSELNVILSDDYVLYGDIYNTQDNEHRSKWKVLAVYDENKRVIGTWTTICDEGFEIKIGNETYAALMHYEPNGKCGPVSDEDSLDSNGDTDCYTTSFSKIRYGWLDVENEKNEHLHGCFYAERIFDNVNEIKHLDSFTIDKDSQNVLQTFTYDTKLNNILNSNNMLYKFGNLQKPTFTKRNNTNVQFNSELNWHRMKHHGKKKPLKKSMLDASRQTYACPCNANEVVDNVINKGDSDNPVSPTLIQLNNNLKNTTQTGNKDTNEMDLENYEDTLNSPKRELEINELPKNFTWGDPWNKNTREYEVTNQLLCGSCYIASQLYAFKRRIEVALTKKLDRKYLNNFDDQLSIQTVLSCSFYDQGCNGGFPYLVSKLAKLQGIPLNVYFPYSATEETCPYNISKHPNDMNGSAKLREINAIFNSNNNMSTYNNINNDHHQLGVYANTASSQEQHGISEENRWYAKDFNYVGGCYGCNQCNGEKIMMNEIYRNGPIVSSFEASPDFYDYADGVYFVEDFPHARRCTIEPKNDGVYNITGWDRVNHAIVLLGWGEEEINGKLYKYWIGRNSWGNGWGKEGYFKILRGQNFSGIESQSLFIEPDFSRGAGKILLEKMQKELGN

This assay addresses DPAP1 (Plasmodium falciparum, UniProt Q8IIJ9). The assay can be described thus: primary screen, percent inhibition; read by cleavage of a fluorogenic dipeptide substrate; higher = more effect of the substance. The arrangement: species or system P. falciparum D10 trophozoite lysates; single well.
Regarding `Cc1c(-c2ccccc2)nc(Cl)c(C#N)c1C#N`, the “% Inhibition @ 10 uM” value was -4.24%.
Then `Cc1c2cnn(CC(=O)N3CCC(N4CCCCC4)CC3)c(=O)c2c(C)n1Cc1ccc(F)cc1`, with 1.22%; and `Cc1cccc(/C=C2/SC(=O)N(Cc3ccccc3C#N)C2=O)n1`, with -5.9%.
Under `CCOC(=O)C(C)Oc1cc2occ(-c3nc(C)cs3)c(=O)c2cc1CC` (stereo not drawn) stands 0.00784%.
`COc1ccc(/C=C2\C(=O)NC(=S)N(c3ccccc3)C2=O)cc1Br`: the “% Inhibition @ 10 uM” value is -5.2%.
Under `Cc1ccc(C2=NN(CCC(=O)NCCN3CCOCC3)C(=O)CC2)cc1` stands 3.24%.
`Cc1cc(C)n2nc(S(=O)(=O)Cc3ccc(Cl)cc3)nc2n1`: the “% Inhibition @ 10 uM” value worked out at 0.727%.
Turning to `CCOC(=O)c1c(NC(=O)c2cc3ccccc3o2)sc(C(C)=O)c1C`, the “% Inhibition @ 10 uM” value is recorded as -4.13%.
Then `ClC(Cl)(Cl)c1nc(C(Cl)(Cl)Cl)nc(C(Cl)(Cl)Cl)n1`, with 21.5%; and `Cc1cc(C)cc(Oc2nc3c(C)cccn3c(=O)c2/C=C(\C#N)C(=O)N2CCCCC2)c1`, with 3.63%; and `CCc1cc2c(cc3c(=O)n(CC(=O)NC4CCCCCC4)nc(CC)n32)s1`, with 0.0198%.
As for `COc1cc(Cl)cc2c1Sc1ccccc1CC2N1CCNCC1` (stereo not drawn), the “% Inhibition @ 10 uM” value was determined as 4.03%.
Under `CCNCC(=O)N1c2ccccc2CCc2ccc(NC(=O)OC)cc21` stands 4.12%.
Then `Cc1ccc(CCNc2cnn(C34C[C@@H]5C[C@@H](CC(CC(=O)O)(C5)C3)C4)c(=O)c2Cl)cc1`, with 7.64%; and `CCOc1ccc(S(=O)(=O)N2CCN(c3cc(Cl)ccc3Cl)CC2)cc1`, with 1.29%; and `Cc1ccc(C2=NC3(CCC(C)CC3)NC2=S)cc1` (stereo not drawn), with 10.9%.
Under `N#CC1(C#N)[C@H](C(N)=O)[C@H]1c1ccccc1Cl` stands -0.197%; under `Nc1nc(-c2cccc([N+](=O)[O-])c2)cs1`, 2.4%; under `Oc1nnc(SCc2ccc(Cl)cc2)c(O)n1`, 0.997%.
In the case of `COc1ccccc1/C=C/CN1C[C@@H]2C[C@H](C1)c1cccc(=O)n1C2`, the “% Inhibition @ 10 uM” value is -2.48%.
Under `Nc1nc(Cl)nc(Nc2ccccc2SCCC(F)(F)F)n1` stands -2.77%; under `COC(=O)c1ccnc(C2CCCCC2=O)c1` (stereo not drawn), -3.75%; under `CC(C)C[C@H](NC(=O)OCc1c(Cl)cccc1Cl)C(=O)NCC#N`, 1.71%.
Under `COc1ccc(CCNC(=O)Cn2c(SCc3ccccc3F)nc3cccnc32)cc1OC` stands 0.693%; under `CCCC[C@H](NC(=O)[C@H](CC(C)C)NC(C)=O)C(=O)c1nc2ccccc2o1`, -0.214%; under `CCCCN1C(C)=NC(C(F)(F)F)(C(F)(F)F)C2=C1CC(C)(C)CC2=O`, 0.221%.
For `CCOc1ccc(-c2nonc2NC(=O)c2oc3ccc(F)cc3c2C)cc1OCC`, the “% Inhibition @ 10 uM” value is 1.9%.
Then `Cn1nc(-c2ccc(C(=O)N3CCN(Cc4ccccc4)CC3)cc2)c2ccccc2c1=O`, with -11.1%; and `CC(=O)Nc1cccc(Oc2ccc3c(c2)C(=O)N(c2ccccc2C)C3=O)c1`, with -7.33%; and `CCC(=O)Nc1ccccc1-n1cccc1`, with -3.23%.
In the case of `Cc1sc(NC(=O)c2ccco2)c(C(c2cccnc2)N2CCN(c3ccccn3)CC2)c1C` (stereo not drawn), the “% Inhibition @ 10 uM” value was determined as 38.8%.
Under `Cc1nc(-c2ccccc2)cc(N2CCCCC2)n1` stands 0.605%.
Take `O=C(Nc1cccc(Cl)c1)N1CCC(Cc2ccccc2)CC1`: the “% Inhibition @ 10 uM” value is on record as 0.727%.
With `CCN(CC)CCN(C)Cc1ccc(Cl)cc1`, the “% Inhibition @ 10 uM” value is listed as -0.603%.
Consider `O=C(NCc1ccc2c(c1)OCO2)c1ccc(S(=O)(=O)N2CCCCCC2)cc1`, for which the “% Inhibition @ 10 uM” value was 12.7%.
In the case of `Cc1ccc(CNC(=O)C2CCN(c3nn4c(=O)cc(C)nc4s3)CC2)cc1`, the “% Inhibition @ 10 uM” value is 4.55%.
For the molecule `Cc1ccc(S(=O)(=O)/N=C(/NCc2ccccc2)c2ccc(F)cc2)cc1`, the “% Inhibition @ 10 uM” value stood at 3.87%.
Then `CCOc1ccc(C(=O)/C=C(\O)C(=O)OC)cc1`, with -5.14%; and `N#CCNC(=O)[C@H](CC1CCCCC1)NC(=O)C1CCCCC1`, with -3.49%; and `CCCS(=O)(=O)c1nc(S(=O)(=O)c2ccc(C)cc2)c(NCCCOC)s1`, with -0.522%.
Then `COc1ccc(-c2cc(-c3ccc(C(C)C)cc3)c(C#N)c(N)n2)cc1`, with 3.39%; and `O=C(c1nn2c(C(F)(F)F)cc(-c3cccs3)nc2c1Cl)N1CCN(c2ccccc2)CC1`, with -3.77%; and `O=C(O)c1cc(-c2cccc(Br)c2)nc2ccccc12`, with -1.54%.
For the molecule `CCS(=O)(=O)c1c(S(=O)(=O)CC)c2cc(C(C)(C)C)ccn2c1C(=O)c1ccc(C)cc1`, the “% Inhibition @ 10 uM” value was -1.47%.
Under `Cc1cc(C(=O)NCCCN2CCN(C)CC2)c2c(C)nn(-c3cccc(Cl)c3C)c2n1` stands -3%; under `Cc1sc2ccc3ccsc3c2[n+]1C`, -4.51%; under `CCC1CCc2c(sc(NC(=O)c3cccc(Br)c3)c2C(N)=O)C1` (stereo not drawn), -2.63%.
On to `CCC1CCCCN1CCCNC(=O)CSc1nc2nc(C)c(Cc3ccccc3)c(C)n2n1` (stereo not drawn), for which the “% Inhibition @ 10 uM” value is -3.48%.
Under `O=C(N/C(=C/c1cccs1)C(=O)N1CCOCC1)c1cccs1` stands -0.996%; under `Cc1nnc(N2CCN(C(=O)NCC3CCCO3)CC2)c2nn(-c3ccc(Cl)cc3)c(C)c12` (stereo not drawn), 4.65%.
Consider `O=C(CNS(=O)(=O)c1ccc(Br)s1)N1CCC(Cc2ccccc2)CC1`, for which the “% Inhibition @ 10 uM” value is -0.601%.
Then `CCC(C)NC(=O)c1cc(-c2ccc(Cl)cc2)on1` (stereo not drawn), with -0.601%; and `CC(=O)OCC1CC2=C(CCCC2(C)C)CC1C` (stereo not drawn), with 33.1%.
Consider `Cc1noc(C)c1S(=O)(=O)N(C)Cc1ccccc1`, for which the “% Inhibition @ 10 uM” value is -2.12%.
As to `COc1ccccc1-c1cc(C(=O)N2CCN(C)CC2)no1`, the “% Inhibition @ 10 uM” value came to 3.89%.
Under `Cc1ccccc1N(CC(=O)Nc1ccccc1Cl)S(C)(=O)=O` stands -8.4%.
Under `O=C1N/C(=C\c2ccc(O)c(Br)c2)C(=O)N1Cc1ccc(Cl)cc1` stands 6.89%.
Under `CCC1(O)C(=O)N(C2CCCCC2)S(=O)(=O)N(C2CCCCC2)C1=O` stands -6.27%.
Regarding `CC1=NN(C(=O)c2cc(-c3ccc(C)s3)nc3ccccc23)C(O)(C(F)F)C1` (stereo not drawn), the “% Inhibition @ 10 uM” value is listed as -1.88%.
Under `CC1=CC2=NC(=O)/C(=C\c3cc(C)n(-c4cc(C)ccc4C)c3C)C(=N)N2O1` stands -5.1%; under `COc1cccc(CNC(=O)CC/N=c2/c(N3CCCC3)c(O)c2=O)c1`, -11.3%; under `O=S(=O)(Nc1c(Br)cc(Br)c2cccnc12)c1ccccc1`, 3.12%.
Then `Cc1ccc(-c2[nH]nc3c2C(c2ccc(O)c(O)c2)C(C#N)=C(N)O3)cc1` (stereo not drawn), with 0.777%.
Under `Cc1ccc(NS(=O)(=O)c2cc(-c3cc(C)no3)ccc2C)nc1` stands -9.3%; under `Cc1noc(NS(=O)(=O)c2ccc(NC(=O)CS(=O)(=O)c3ccccc3)cc2)c1C`, -5.1%; under `Cc1onc(-c2c(Cl)cccc2Cl)c1C(=O)NCCc1ccccc1`, -7.5%.
In the case of `O=C(CSc1ncnc2sc3c(c12)CCC3)Nc1ccc(F)cc1`, the “% Inhibition @ 10 uM” value stood at 0.528%.
Consider `CCCCNC(=O)CN(c1ccc(OC)c(Cl)c1)S(C)(=O)=O`, for which the “% Inhibition @ 10 uM” value stood at 4.75%.
Under `COCCNC(=O)c1cc(-n2cnnc2)ccc1Cl` stands -10%; under `O=C1OC(c2ccccc2F)=N/C1=C\c1ccccc1Cl`, -2.96%; under `COc1ccc(CCc2nc(C)cc(CN(C)C)c2O)cc1`, 2.38%.
Under `C=CCOc1ccc(C2c3c(oc4ccccc4c3=O)C(=O)N2c2nc(C)c(C)s2)cc1OCC` (stereo not drawn) stands 4.06%; under `CC(C)(C)c1ccc2c(c1)C1c3ccc(C(C)(C)C)cc3C2C2C(=O)N(c3ccc(-c4ccc(Cl)cc4)cc3)C(=O)C12` (stereo not drawn), 3.98%.
Then `COc1cc(C)c(CN2CC(C)OC(C)C2)cc1C` (stereo not drawn), with -5.11%; and `CCOc1ccccc1/C=C(\C#N)c1nc(-c2ccc(C)cc2C)cs1`, with 0.912%.
As for `Cc1cccc(-n2ncc3c(NCCC4=CCCCC4)ncnc32)c1`, the “% Inhibition @ 10 uM” value is given as 7.63%.
Under `CCO/C(O)=C1\C(C)=NC(=S)NC1c1cccc(Br)c1` (stereo not drawn) stands -0.0648%; under `O=C(c1nc(S(=O)(=O)Cc2ccccc2)ncc1Cl)N1CCC(Cc2ccccc2)CC1`, -4.54%.
Under `Cc1n[nH]c(C)c1Nc1cnn(C23CC4CC(CC(C4)C2C(=O)O)C3)c(=O)c1Cl` (stereo not drawn) stands 1.15%.
Under `COc1ccc(-c2noc(CC#N)n2)cc1` stands -4.58%.
For `O=C(CSc1nc2ccccc2[nH]1)Nc1nnc(-c2ccccc2)s1`, the “% Inhibition @ 10 uM” value is recorded as -1.6%.
Then `Cc1ccc(C(=O)Nc2ccc(C)c(Cl)c2)cc1`, with -4.08%.
For `Cc1nn(C)cc1CNC(=O)c1cc2n(n1)C(C(F)(F)F)CC(c1ccc(Cl)cc1)N2` (stereo not drawn), the “% Inhibition @ 10 uM” value is recorded as 3.67%.
Under `CNC1=NC(=O)CC(C(=O)Nc2cccc(OC)c2)S1` (stereo not drawn) stands 3.91%.
Under `CCOc1ccc(NC(=O)c2ccc(Cl)c(Cl)c2)cc1` stands -6.33%; under `Cc1ccc2oc(C(=O)Nc3sc4c(c3C(=O)NCCc3ccccc3)CCC4)cc(=O)c2c1`, 0.248%; under `CC1(c2ccccc2)CC(c2ccccc2)=C(C#N)C(=C(C#N)C#N)N1` (stereo not drawn), 13.2%.
Under `N#CC1=C2c3ccccc3CC3(CCCCC3)N2C(=O)C1=O` stands -1.98%.
As for `COc1ccc(N2C(=O)NC(=O)/C(=C/c3ccc(SC)cc3)C2=O)cc1`, the “% Inhibition @ 10 uM” value is recorded as -11.8%.
Then `Brc1ccc(/C=N/c2nc3ccccc3n2CCN2CCCCC2)cc1`, with 19.2%; and `COc1ccc(C2C(C(N)=O)=C(C)Nc3nc(SCc4ccccc4Cl)nn32)c(OC)c1` (stereo not drawn), with -4.02%; and `CN1C(=O)c2ccccc2C(C(=O)NCc2ccc3c(c2)OCO3)C1c1cn(C)c2ccccc12` (stereo not drawn), with 4.63%.
`COc1ccc2oc(=O)c(C(=O)N3CCOCC3)cc2c1`: the “% Inhibition @ 10 uM” value was 3.01%.
For `CCn1c2ccccc2c2cc(CN3CCN(c4ccc(Cl)cc4)CC3)ccc21`, the “% Inhibition @ 10 uM” value was -6.21%.
Under `CCc1ccc(CNc2ccc(O)cc2)cc1` stands 1.37%.
Under `COc1ccc(C2C(C(=O)c3ccc(C)cc3)=C(O)C(=O)N2Cc2cccnc2)cc1` (stereo not drawn) stands -8.67%.
